In publication PMC6919601, “Identification of Plasmodium dipeptidyl aminopeptidase allosteric inhibitors by high throughput screening” (PLoS ONE, 2019):
In all, about 110,000 compounds went through this assay and about 230 (0.21%) showed an effect of 50% or more. Some of the results follow.

What follows are compounds tested against DPAP1 (Plasmodium falciparum, UniProt Q8IIJ9) (assay: primary screen, percent inhibition; read by cleavage of a fluorogenic dipeptide substrate; higher = more effect of the substance).
DPAP1, sequence (Q8IIJ9 whole entry, looked up): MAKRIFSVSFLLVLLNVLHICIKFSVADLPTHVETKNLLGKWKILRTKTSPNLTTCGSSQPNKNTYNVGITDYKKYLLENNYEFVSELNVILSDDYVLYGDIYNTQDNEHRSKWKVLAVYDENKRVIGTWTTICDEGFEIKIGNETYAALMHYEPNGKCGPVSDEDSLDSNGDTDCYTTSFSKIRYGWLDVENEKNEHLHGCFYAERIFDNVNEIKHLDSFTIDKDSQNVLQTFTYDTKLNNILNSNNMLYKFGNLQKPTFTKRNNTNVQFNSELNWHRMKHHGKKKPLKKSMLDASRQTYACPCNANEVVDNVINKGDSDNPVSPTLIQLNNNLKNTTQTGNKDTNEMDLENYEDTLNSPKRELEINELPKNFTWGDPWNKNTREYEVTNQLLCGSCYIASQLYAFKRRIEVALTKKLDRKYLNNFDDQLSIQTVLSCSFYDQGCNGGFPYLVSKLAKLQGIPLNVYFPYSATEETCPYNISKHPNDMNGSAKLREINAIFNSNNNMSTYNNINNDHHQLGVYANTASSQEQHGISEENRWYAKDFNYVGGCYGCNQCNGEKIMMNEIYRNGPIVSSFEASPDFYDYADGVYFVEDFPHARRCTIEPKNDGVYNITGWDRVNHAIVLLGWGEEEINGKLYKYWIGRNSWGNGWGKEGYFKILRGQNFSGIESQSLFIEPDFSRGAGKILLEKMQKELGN
Set-up: species or system P. falciparum D10 trophozoite lysates; single well
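Further: 30 min substrate incubation versus DMSO and 10 µM JCP410 controls.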

In order of rising “% Inhibition @ 10 uM” value:
1. N=c1n(CC(=O)O)c2ccccc2n1Cc1ccccc1Cl  -9.3%
2. CC(C)(C)CC(OC(=O)N1CCOCC1)C(=O)NCC#N (stereo not drawn)  -8.81%
3. Cn1c2c(c(=O)n(C)c1=O)C(c1ccc(Cl)cc1)C(C#N)=C(N)O2 (stereo not drawn)  -7.67%
4. Cc1ccc(-c2nc3ncccc3o2)cc1NC(=O)c1ccc(Br)o1  -7.34%
5. Cc1ccc(COc2ccc(/C=C3/C(=N)N4C(=NC3=O)SN=C4S(C)(=O)=O)cc2)cc1  -7.21%
6. NC(=O)N1CCN(C(=O)c2ccco2)CC1  -6.99%
7. O=C(COCc1cc(-c2ccc(F)cc2)on1)NCc1ccc(Cl)cc1  -6.91%
8. Fc1ccccc1N1CCN(Cc2cccc(Oc3ccccc3)c2)CC1  -6.47%
9. COc1cccc2c1cc1c(=O)n(CC(=O)N3CCN(C)CC3)nc(C)n12  -5.55%
10. O=C(CN1C(=O)S/C(=C/c2cccc(F)c2)C1=O)Nc1ccc(F)cc1  -4.39%
11. CCC(C)NS(=O)(=O)c1ccc(-n2cccn2)cc1 (stereo not drawn)  -3.9%
12. O=C1N/C(=C/c2ccsc2)C(=O)N1Cc1ccc(F)cc1  -3.41%
13. CCOC1=C(C)C(c2ccccc2)Oc2ccccc21 (stereo not drawn)  -3.35%
14. COc1cccc(OC)c1C(=O)Nc1nc2c(C)cccc2s1  -3.29%
15. COCC(=O)n1nc(-c2ccco2)nc1NCc1ccccc1  -3.24%
16. CC(C)CC(NC(=O)OCc1ccccc1)C(=O)NC(CC(C)C)C(=O)NC(CC(C)C)C(=O)Nc1c(NCc2ccccc2)c(=O)c1=O (stereo not drawn)  -3.14%
17. Cc1cc(C)c(N2C(=O)C3C4C=CC(O4)C3C2=O)c(C)c1 (stereo not drawn)  -3.12%
18. Cc1nn(C)c2c1c(-c1ccccc1)cc(=O)n2Cc1cc(=O)n2cc(Cl)ccc2n1  -2.6%
19. O=C(O)COc1ccccc1C1C2=C(O)CCCC2=NC2=C1C(=O)CCC2 (stereo not drawn)  -2.45%
20. Nc1c(-c2nc(-c3ccncc3)no2)nnn1-c1ccccc1F  -2.44%
21. COc1ccccc1C(=O)Nc1cc(C)ccc1C  -1.98%
22. COC(=O)C1=C(C)NC(=O)CC1c1ccc(Cl)cc1 (stereo not drawn)  -1.96%
23. COc1ccc(/C=C2/SC(c3ccc(C)cc3)=NC2=O)c(OC)c1  -1.96%
24. COc1cc(C)c(CN2CCN(c3cccc(Cl)c3)CC2)cc1C  -1.86%
25. CCN1CCC(NCc2ccc(Cl)cc2)CC1  -1.5%
26. Cc1cccc(OCc2nc(C#N)c(NCc3cccnc3)o2)c1  -1.38%
27. CCC(C)(Nc1ccc(C)cc1)c1nnnn1C(/C=C\c1ccc(Cl)cc1Cl)C(C)(C)C (stereo not drawn)  -1.29%
28. O=C(CN1C(=O)C2C3CCC(C3)C2C1=O)Nc1cccc(Cl)c1 (stereo not drawn)  -1.22%
29. CCCC(=O)NC(=O)/C(C#N)=C/Nc1cc(Cl)ccc1C  -1.06%
30. CCN1CCN(C(=O)c2ccc(N)cc2C(=O)O)CC1  -0.891%
31. CN(C)c1ccc(C2C(C(=O)c3cc4ccccc4o3)=C(O)C(=O)N2CCCN2CCOCC2)cc1 (stereo not drawn)  -0.865%
32. C=CCS(=O)(=O)c1nc2ccc([N+](=O)[O-])cc2s1  -0.636%
33. CC1CCCN(C(=O)Nc2cn(C)c(=O)c3ccccc23)C1 (stereo not drawn)  -0.546%
34. Cc1nnc(N2CCCC(C(=O)NCc3ccc(OC(C)C)cc3)C2)c2nn(-c3ccccc3)c(C)c12 (stereo not drawn)  -0.518%
35. CN(Cc1ccccc1)c1ncnc2onc(-c3ccc(Cl)cc3)c12  -0.495%
36. Cc1nnc(N2CCCC(C(=O)N(C)Cc3ccccc3)C2)c2nn(-c3ccccc3)c(C)c12 (stereo not drawn)  -0.341%
37. O=C(O)CCCNC(=O)c1ccccn1  0.0345%
38. COc1ccccc1CNC(=O)c1sc2nc(-c3ccc(OC)c(OC)c3)ccc2c1N  0.161%
39. Cc1c(-c2nsc(NC(=O)c3cccc(F)c3)n2)nnn1-c1ccc(Br)cc1  0.234%
40. Cn1c(=O)c2c(nc(Sc3nc[nH]n3)n2C)n(C)c1=O  0.315%
41. CC(C)CCN(C)C1CCN(S(=O)(=O)c2cccc(Cl)c2)CC1  0.387%
42. CC(=O)Nc1nc(Cn2c(-c3nonc3NC(C)=O)nc3ccccc32)nc(NC(C)=O)n1  0.503%
43. COc1ccc(CC(=O)Nc2ccc(C)c(C)c2)cc1  0.526%
44. CCC(C)Sc1nc2c(c(=O)[nH]c(=O)n2C)n1Cc1cccc(C)c1 (stereo not drawn)  0.746%
45. CN(Cc1nc2ccccc2n1C)C(=O)c1cccs1  1%
46. O=C(NC1(C(Cl)(Cl)Cl)Oc2ccccc2O1)C(F)(F)F  1.12%
47. COCCCNC(=O)CSCc1c(Cl)cccc1Cl  1.37%
48. Cc1ccc(-n2nc(C)c3c(C(F)(F)F)cc(=O)n(CC(=O)NCc4ccc5c(c4)OCO5)c32)cc1  1.63%
49. Cc1cc(NC(=O)CN2CCCC2)c2ccccc2n1  1.9%
50. CC(C)/N=C/C1=C(O)c2sccc2N(Cc2cccc(F)c2)S1(=O)=O  1.92%
51. CCS(=O)(=O)c1ncc(Cl)c(C(=O)N(Cc2ccccc2Cl)C2CCS(=O)(=O)C2)n1 (stereo not drawn)  1.99%
52. CC(CCN1CCCCC1CO)c1ccccc1 (stereo not drawn)  2.1%
53. CN1CC=C(CNc2cccc3c2CCCC3)CC1  2.33%
54. CCCC1=NN(C(=O)Cc2ccc(OC)cc2)C(O)(C(F)(F)F)C1 (stereo not drawn)  2.43%
55. Cc1ccnc(NC(=O)c2cc3c(=O)oc4ccc(C)cc4c3s2)c1  2.5%
56. Cc1ccc(C2=NN(C(=O)CCN3CCOCC3)C(c3ccco3)C2)cc1 (stereo not drawn)  2.56%
57. c1ccc(-c2ccnc(-c3nccs3)n2)cc1  3.24%
58. Cc1ccc(-c2nc3sc(-c4ccc(C)cc4)nc3s2)cc1  3.32%
59. COc1ccc(C2(C(=O)NCc3ccco3)CCCC2)cc1OC  3.87%
60. CC1=C(C(=O)Nc2cccc(F)c2)C(c2ccccc2Cl)C2=C(O)CCCC2=N1 (stereo not drawn)  4.11%
61. CC(C)(C)c1cc(C(C)(C)C)c2[nH]c3c(C(C)(C)C)cc(C(=O)C(F)(F)F)cc3c2c1  4.22%
62. CCCN1CCC(NCCc2ccccc2)CC1  4.54%
63. C=CCn1c(NCc2cc(OC)c(OC)c(OC)c2)nc2ccccc21  4.8%
